Results on 22 molecules are retold here after paper PMC12136788.

The other results are listed elsewhere or left out.

The labels stand for the following.
B1: chr7:149068622:149068623:-_ENSMUSG00000025139_ENSMUST00000001950|mus_hu|mus_mus_mus_hu_False|28_28 (ssRNA)
RNA: GGGAGUUCUACAGUCCGACGAUCGUGAGGCCUCUGAGUGUGGCUUGUGGUCUGUCCUGGGUUAGAGUUGUUAAUAUCACGGAACAUACCAUCUAGAACGUUCCAGUCUGCCUGACUACCUUCAUUCCCAAUGGAGAAGAAAUCCAACAGAGGAUUGAGCAUCA
B2: chr14:31074762:31074763:+_ENSG00000092140_ENST00000206595|hu_hu|FALSE|FALSE (ssRNA)
RNA: GGGAGUUCUACAGUCCGACGAUCCCAGAUAUUGGCUUUGUUGAUAUACAAUCUUUUAGUUUUUUUUUUAAUUUGGAAUCCUAACUCUAUUAAUAGUGUUGAUACAUUUCUUCUAAAUUUGCUGCCUUGCCUCAGUAGAUCUUUCAACAGAGGAUUGAGCAUCA
B3: 730498_730618_283_3pUTR_ENSG00000103266_ENST00000219548|human|control|control (ssRNA)
RNA: GGGAGUUCUACAGUCCGACGAUCCUCCUUGAGCUCCUGCGCGCUCGGGCUCUUCUCGGGGCUUCCGCCGCCAGCGCCCAGCCGUGCGCCGCCCUCCUUCUCCUCCUUGCCCUUCAUGGCGCCGCGCGGCACGGCCUGGGCUCCCAACAGAGGAUUGAGCAUCA
B4: chr5:125368827:125368828:+_ENSMUSG00000079215_ENSMUST00000111417|mus_mus|FALSE|FALSE (ssRNA)
RNA: GGGAGUUCUACAGUCCGACGAUCUAGCUUCAAAAGUGUUAGUUGUAUUCCCCAGCAACCGCAUGAUAAAAUAAUUCAACUAUGUAGAAAUAUAGAACUCUAGGACUAGCUGGAAACUGGGCAAUCAUUUAGUCCAGUGUCCUCCAACAGAGGAUUGAGCAUCA
B5: chr11:72497679:72497680:+_ENSMUSG00000020794_ENSMUST00000021148|mus_hu|FALSE|FALSE (ssRNA)
RNA: GGGAGUUCUACAGUCCGACGAUCAUUGCUAUAUCCAAUCCAAGAGGUGGGUGCAACUAGAAUACAAAAAGGACAAAGCACCUAGUGAUGACUCCUUCGAAGUCAUCAUUAAAAAUCAAGUAAUUGCUCAUUAAGUAUUUCAGUCAACAGAGGAUUGAGCAUCA
B6: chr3:176767854:176767855:-_ENSG00000177565_ENST00000430069|hu_hu|hu_hu_hu_mus_False|8_108 (ssRNA)
RNA: GGGAGUUCUACAGUCCGACGAUCGACAUCCUUGUUGCUGGGCACGUCCUGCCCUCCUUCCCGUAUGCAGUGUCUAAGCACGAGCUGCGUAGGGCCACUCGUGCUGUUCUCACUGAGGUUCCAGAUUCUUGCUGUUGAGUCUCCCAACAGAGGAUUGAGCAUCA
B7: chr7:151048522:151048523:+_ENSG00000013374_ENST00000566856|hu_mus|hu_hu_hu_mus_True|28_38 (ssRNA)
RNA: GGGAGUUCUACAGUCCGACGAUCCUGUUUCUUAUUUAUUACGAUCUUGAUGUAAUUUUCUUGAAAUCCGAAAGUUUCAGCUAUUUGACACCUCAGGUCUCUGCCAGUGAUGUGCAAGCGGGUCUCCAACAAGCUUUUCUUAUCCAACAGAGGAUUGAGCAUCA
B8: chr11:57926588:57926589:+_ENSMUSG00000020515_ENSMUST00000020822|mus_mus|motif|central (ssRNA)
RNA: GGGAGUUCUACAGUCCGACGAUCAUCGAUCCCUUCCUCCUCGUGUUUCUGGAACUGCAGCCCUGAGUUUGCAAGCAGAUCGGUGGAAUCCUGGGAGUACAUAUCCUCUGUCAGGUUGAACUUGAAGUUGAACUGCCAUGUGUUCAACAGAGGAUUGAGCAUCA
B9: chr7:65705844:65705845:+_ENSG00000169902_ENST00000304842|hu_mus|hu_hu_hu_mus_False|1_18 (ssRNA)
RNA: GGGAGUUCUACAGUCCGACGAUCAAACGGAUCUUUGUUACAUAAAUAAGGUGCCGGCUCCCCAUGUUUAACAAUGACCUCCAGAAGGAAGGCUUGCAUGGCAGAAUCUAGCACUUCAUCAGUAACACCCGCCUCAUCCAGGCGCAACAGAGGAUUGAGCAUCA
B10: chr17:49039638:49039639:-_ENSG00000008294_ENST00000262013|hu_hu|motif|central (ssRNA)
RNA: GGGAGUUCUACAGUCCGACGAUCCAUUCUGAACCCCAGGGAUUCCAUAAUAGAAAUAAAUACUGAAAUAACUACAUUGCGGAAUGAGCUCUUUGCUCAUAGAAAUGAAGCUCAGCCUCUAAGAGACAGCAAGUGGGACAUUCUCAACAGAGGAUUGAGCAUCA
B11: chr2:9725471:9725472:-_ENSG00000134308_ENST00000238081|hu_hu|motif|central (ssRNA)
RNA: GGGAGUUCUACAGUCCGACGAUCUGCCGCAUCACAUUCUUCUCCUGCACUGUCUGAUGUCCAAAGUGUUAGGUUGUCUCGGAGCAACUGCAUGAUGAGGGUGCUGUCUUUGUAUGAGUCUUCAUUCAGUGUAUCAAGUUCAGCCAACAGAGGAUUGAGCAUCA
B12: chr14:76904430:76904431:+_ENSMUSG00000022010_ENSMUST00000022587|mus_mus|mus_mus_mus_hu_True|28_28 (ssRNA)
RNA: GGGAGUUCUACAGUCCGACGAUCUGCAGCCAAAAACACCCUCGUGGAAAAAAAGAGGGAACACCAGCAGCCUUGUAUAAGCUAGAUAAAAUCUUCUGGCUUUCCGCAGCUCAGGGCGAAACAGAAAACGGCAGCCCUAAUUUACAACAGAGGAUUGAGCAUCA
B13: chr22:19452774:19452775:-_ENSG00000070010_ENST00000399523|hu_hu|hu_hu_hu_mus_False|8_18 (ssRNA)
RNA: GGGAGUUCUACAGUCCGACGAUCCUUCUCAUUGUAGUUGAUAGCAAUCACAUCUCCAGUCGUCAGACAGGCGAAGUUUCUCAAUGCAUUUUCUAAUACCGCUUUAGGGUUGGUAAUGUCCAGGAAGUCAGGGCUCUGAGGCUGCAACAGAGGAUUGAGCAUCA
B14: 37006464_37006584_4389_CDS_ENSG00000164190_ENST00000448238|human|control|control (ssRNA)
RNA: GGGAGUUCUACAGUCCGACGAUCCACAGCUUUUGGCAUGUUAGGGGAUGUCAUAAUGUUGAUAGUUGUAAGACAAGCAUCCGCUGAUUUUGUAACUCUCUCCAUAAUAAGGUCUCUCCAUAACCUUUCUUCUUCUUCAGUAUCCAACAGAGGAUUGAGCAUCA
B15: chr3:119217614:119217615:+_ENSG00000113845_ENST00000264244|hu_mus|motif|central (ssRNA)
RNA: GGGAGUUCUACAGUCCGACGAUCGCUCCGCAAAGGCGGCUGCGGGGAGCGGGCGGCGGCGCGCCCAUGGCGCCCUCCGGCCCGCAGAGAGACAGACACCCCAGGGUCGGCGGGCACCGUGGGAGAGGGUGACCUGUACAGCCCCAACAGAGGAUUGAGCAUCA
B16: chr10:33190432:33190433:-_ENSG00000150093_ENST00000302278|hu_mus|hu_hu_hu_mus_True|38_48 (ssRNA)
RNA: GGGAGUUCUACAGUCCGACGAUCUACAUUUUCCAAACCUGCAUGUGAAUAAAACCCUGGCCACAGAGCCCCAAAACUACCCUACUGUGACUAUGGAAAUUGCUACUUGAGCUUGGUGUUGCAAAAUCCGCCUGAGUAGGAUUCCAACAGAGGAUUGAGCAUCA
B17: chr13:100192284:100192285:-_ENSMUSG00000052727_ENSMUST00000064762|mus_hu|FALSE|FALSE (ssRNA)
RNA: GGGAGUUCUACAGUCCGACGAUCGUAAGAUUUCCAUUAGCAAAUGAUUAAAUCUUAAUUAAAUGAGUAUUGGAAAGCUCCUAGACUGCAUAAGCUAUUGGAGACACUUAAAACAUUCAUAUACACUGGGGAAACCAUUCACUACAACAGAGGAUUGAGCAUCA
B18: chr6:114281168:114281169:-_ENSG00000196591_ENST00000368632|hu_hu|hu_hu_hu_mus_True|38_78 (ssRNA)
RNA: GGGAGUUCUACAGUCCGACGAUCUUCCAUUUUUCGGUAUAAACCAUAAUUUAGCAGCAAGUUAUGGGUCAUCCGGAUUCUAUGAGGCUUCAUGGGAUGACCCUGUCCAUAAUAAUAAUUGCCAAUAUCACCAUCAUAGUAGUACAACAGAGGAUUGAGCAUCA
B19: chr9:53430067:53430068:-_ENSMUSG00000032030_ENSMUST00000166367|mus_hu|FALSE|FALSE (ssRNA)
RNA: GGGAGUUCUACAGUCCGACGAUCGGGUGAGUUGACUUGAGGUUCAUACAACAAAACUUGCCGUUUGAGUUUUGGGAAAGCUACUAAAGACCAUAAAGUCCUCCUAAGUUCAGCAUCAGGGAGUUCAGUUGCAAGCUUAAGAUUCAACAGAGGAUUGAGCAUCA
B20: 109005753_109006138_1874_CDS_ENSMUSG00000053646_ENSMUST00000072093|mouse|control|control (ssRNA)
RNA: GGGAGUUCUACAGUCCGACGAUCUGACAAGAAAACCUCCCUCCUCUCUUCCCGACUGAUAUUGGCAGGGCUCACGGCCACCACUCGAAGACAGCCCAGUUCCGGCUGGAAGCUCCACAGCCACUGCUCUGGGCCCUGGUCCCUCAACAGAGGAUUGAGCAUCA
B21: chr3:103141349:103141350:+_ENSMUSG00000033014_ENSMUST00000106860|mus_mus|FALSE|FALSE (ssRNA)
RNA: GGGAGUUCUACAGUCCGACGAUCACUUGUAGGCUGAGGGGGUAGAUGACUGCCUGAGAUAUAUCUACUCAGUAGAUUAUCUAAACUACUUGAGCCAGCAUCUUCCAACUGUAUAGGUGGGAUAUCUGGCAACGAUGGAAGGUUCAACAGAGGAUUGAGCAUCA
B22: chr7:135612270:135612271:-_ENSG00000105887_ENST00000393085|hu_mus|hu_hu_hu_mus_False|18_108 (ssRNA)
RNA: GGGAGUUCUACAGUCCGACGAUCGUUUCUGAGAUGUAUGUUAAAUAGUACUUCAGUGGAAAACAAAACUUAACCUUUUAUUAAUGCGUGUUGUACCAAAAGCAGACAUUUUAGCUUGCUUCCUUUAAAAAUAUUAACAUUAAGCAACAGAGGAUUGAGCAUCA

For the assay, the target named is T1, UNK ZnF1-3 (human, UniProt Q9C0B0 31-174).
T1 sequence: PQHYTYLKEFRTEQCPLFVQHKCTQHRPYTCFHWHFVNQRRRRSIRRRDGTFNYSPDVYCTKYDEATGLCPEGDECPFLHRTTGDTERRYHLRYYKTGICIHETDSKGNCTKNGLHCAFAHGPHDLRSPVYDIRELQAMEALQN
Description: nsRBNS (natural sequence RNA bind-n-seq); RBNS binding buffer (assumed for nsRBNS): 25 mM Tris pH 7.5, 150 mM KCl, 3 mM MgCl2, 0.01% Triton X-100, 500 ug/ml BSA, 20 U/ml SUPERase-In, 4 C; UNK is unkempt and MSI1 is Musashi-1; names of the RNAs are library labels; protein concentration not given here; high values mean tight binding.
In turn, B1 came in with a binding signal of 0.796 enrichment R.

B2 showed a binding signal of 0.804 enrichment R.

Turning to B3, the binding signal was 0.651 enrichment R.

For the molecule B4, the binding signal came to 1.37 enrichment R.

For B5, the binding signal stood at 1.45 enrichment R.

As to B6, the binding signal is 0.446 enrichment R.

B7 returned a binding signal of 0.51 enrichment R.

Turning to B8, the binding signal was determined as 0.891 enrichment R.

B9: the binding signal was determined as 0.309 enrichment R.

B10 had a binding signal of 1.43 enrichment R.

With B11, the binding signal was determined as 0.881 enrichment R.

Molecule B12 returned a binding signal of 1.84 enrichment R.

B13 displayed a binding signal of 0.792 enrichment R.

Regarding B14, the binding signal turned out to be 0.744 enrichment R.

B15 showed a binding signal of 0.76 enrichment R.

With B16, the binding signal turned out to be 1.15 enrichment R.

The molecule B17 gave a binding signal of 1.07 enrichment R.

B18 showed a binding signal of 0.856 enrichment R.

Regarding B19, the binding signal was determined as 1.55 enrichment R.

As for B20, the binding signal came to 1.27 enrichment R.

B21 displayed a binding signal of 0.953 enrichment R.

With B22, the binding signal stood at 0.584 enrichment R.
